Reference: PubChem BioAssay AID463173 (ICCB-Longwood Screening Facility, Harvard Medical School, 2010)
The campaign covered roughly 52,000 compounds. About 4,300 (8.3%) were called active. Rule as the data show it: active = survival mostly below about 52% (no sharp cut-off); inactive = mostly above about 56%. The list shows a part of the results.

Test system: DeltatarO mutant
Assay: growth inhibition of S. aureus wild type versus tarO mutant, primary screen, teichoic acid synthesis inhibitors, RN4220, OD600 (AID 463173)
Settings: OD600, 18 h, hits give low values, screened at 18.75 µg/mL (by protocol)

`Cc1ccc(C)c(NC(=O)C2CCCN(c3nc4ccccc4s3)C2)c1` (stereo not drawn) was tested. Which survival did it give?
The survival was inactive: 65%.

How did the survival turn out when `CCN1CCN(C(C)C(=O)N(C(C)C)C(C)C)CC1` (stereo not drawn) was run?
The survival was inactive: 107%.

`COC(=O)c1c(NC(=O)CCCOc2ccc(C(C)(C)C)cc2)sc2c1C(C(=O)OC)CC2` (stereo not drawn) was tested. Which survival did it give?
Its survival is active: 3%.

For `CCc1ccc(CNC(=O)C(C)n2ccc3cc(S(=O)(=O)N4CCCCCC4)ccc32)cc1` (stereo not drawn), which survival is on record?
The survival was inactive: 94%.

`COc1ccc(N2CCN(C(=O)CCn3c(=O)[nH]c4cc(OC)c(OC)cc4c3=O)CC2)cc1` was tested. Which survival did it give?
Its survival is inactive: 82%.

Which survival does the source give for `Cc1ccc(CC/C=N/NC(N)=S)o1` here?
Its survival is inactive: 75%.

Which survival does the source give for `COc1cccc(C(=O)NCCc2csc(-c3ccc(Cl)cc3)n2)c1` here?
Its survival is inactive: 89%.

Which survival does the source give for `Cc1cccc(NC(=O)CCS(=O)(=O)c2cccc3nsnc23)c1C` here?
The survival was inactive: 70%.

With `COc1ccccc1N1CCN(c2ncnc3onc(-c4ccc(F)cc4)c23)CC1` as the compound, how does the survival read?
Its survival is inactive: 75%.

For `Cc1ccc(NC(=O)C2CCN(S(=O)(=O)c3ccc4[nH]c5c(c4c3)CCCCC5)CC2)cc1`, which survival is on record?
Its survival is inactive: 78%.

With `CCn1c(=O)c2sccc2n2c(CCC(=O)NCc3ccc(Cl)cc3)nnc12` as the compound, how does the survival read?
Its survival is inactive: 86%.

For `CCS(=O)(=O)c1ccccc1C(=O)N1CCN(c2nc3ccccc3s2)CC1`, which survival is on record?
The survival was inactive: 55%.

`N#Cc1ccc(CSc2nnc(-c3ccc(Br)cc3)o2)cc1` was tested. Which survival did it give?
The survival was inactive: 87%.

With `CCOC(=O)C1CCN(C(=O)Cn2ncc3c4ccccc4n(C)c3c2=O)CC1` as the compound, how does the survival read?
Its survival is inactive: 71%.

How did the survival turn out when `COc1ccc(CNC(=O)CCCN2C(=O)c3cccnc3Oc3ccc(Cl)cc32)cc1` was run?
The survival was inactive: 78%.

For `Cc1oc(-c2cccc(Cl)c2)nc1CSCC(=O)NCc1ccccc1Cl`, which survival is on record?
The survival was active: 0%.

With `CCNC(=O)C1CCN(Cc2cc3ccccc3n2Cc2ccc(C)cc2)CC1` as the compound, how does the survival read?
The survival was inactive: 82%.

Which survival does the source give for `CCOC(=O)c1c(C)oc2nc(C)nc(N3CCN(c4ccc(OC)cc4)CC3)c12` here?
Its survival is inactive: 81%.

For `CCOc1ccccc1CNC(=O)CCCN1C(=O)c2cccnc2Oc2ccc(Cl)cc21`, which survival is on record?
Its survival is inactive: 83%.

`COc1ccccc1Cn1c(SCC(=O)C(C)(C)C)nc2ccccc2c1=O` was tested. Which survival did it give?
The survival was inactive: 83%.

How did the survival turn out when `Clc1cccc(CSc2ccc(-c3cccs3)nn2)c1` was run?
The survival was inactive: 116%.

For `COC(=O)CN1C(C(=O)c2ccccc2)=C(OC(=O)c2ccc(C)cc2)c2ccccc2S1(=O)=O`, which survival is on record?
Its survival is inactive: 43%.

`O=C(c1cccn1-c1nnc(N2CCCCC2)s1)N1CCN(c2ccccc2)CC1` was tested. Which survival did it give?
Its survival is active: 0%.

Which survival does the source give for `O=C(Cn1ncc2c3ccccc3n(Cc3ccccc3F)c2c1=O)NCCCc1ccccc1` here?
Its survival is inactive: 81%.

How did the survival turn out when `CCOc1ccc2nc(NC(=O)c3ccccc3)sc2c1` was run?
Its survival is active: 41%.

For `COC(=O)c1ccccc1NC(=O)CSc1nc2nc(C)cc(C)n2n1`, which survival is on record?
Its survival is inactive: 58%.

With `Cc1ccc(C(=O)Nc2ccc(Br)cc2)cc1S(=O)(=O)NCc1ccccc1` as the compound, how does the survival read?
Its survival is inactive: 83%.

How did the survival turn out when `CCOc1ccccc1C(=O)N(Cc1ccco1)Cc1ccccc1F` was run?
Its survival is inactive: 78%.

How did the survival turn out when `Cc1cccc(NS(=O)(=O)c2nnc(NC(=O)c3cccc(C)c3)s2)c1` was run?
The survival was inactive: 61%.

How did the survival turn out when `Cc1ccc(-n2c(SCC(=O)Nc3ccc4c(c3)OCCO4)nc3c([nH]c4ccccc43)c2=O)cc1` was run?
The survival was inactive: 108%.

With `COCCNC(=O)c1ccc(-c2nc(CN3CCc4ccccc43)c(C)o2)cc1` as the compound, how does the survival read?
The survival was inactive: 72%.

For `Cc1ccc(OCC(=O)Nc2sc3c(c2C(N)=O)CCCC3)c(C(C)(C)C)c1`, which survival is on record?
The survival was inactive: 65%.

`Cc1csc2nc(COC(=O)c3ccc(NC(=O)C(C)C)cc3)cc(=O)n12` was tested. Which survival did it give?
The survival was inactive: 108%.

How did the survival turn out when `CC(C)OCCCNC(=O)CN1C(=O)COc2ccc(S(=O)(=O)N3CCOCC3)cc21` was run?
Its survival is inactive: 79%.

With `COc1ccccc1NC(=O)c1ncoc1-c1ccco1` as the compound, how does the survival read?
The survival was inactive: 61%.

For `Cc1cccc(NC(=O)c2cc3c(=O)n4ccccc4nc3n2C)c1C`, which survival is on record?
The survival was inactive: 58%.

For `CC(C)CCNc1ccc(-c2ccc(Cl)cc2)nn1`, which survival is on record?
Its survival is inactive: 81%.

With `COc1ccc(C)cc1NC(=O)N1CCN(c2nnc(C)c3c(C)n(-c4ccccc4)nc23)CC1` as the compound, how does the survival read?
Its survival is inactive: 73%.

For `O=C(Cn1c(=O)n(CCCS(=O)(=O)C2CCCCC2)c(=O)c2ccccc21)Nc1ccc(F)c(Cl)c1`, which survival is on record?
The survival was inactive: 82%.

For `O=C(c1cnc(N2CCCCC2)c2ccccc12)N1CCN(c2cccc(Cl)c2)CC1`, which survival is on record?
The survival was inactive: 83%.

Which survival does the source give for `COCCCNC(=O)c1nn(-c2ccc(C)cc2)c(=O)n(C)c1=O` here?
Its survival is inactive: 84%.

For `Cc1cc(C)cc(NC(=O)CCCn2c(=O)c3cccn3c3ccccc32)c1`, which survival is on record?
The survival was inactive: 59%.

Which survival does the source give for `C=CCN1C(=O)CN=C1NCc1ccccc1` here?
The survival was inactive: 82%.

Which survival does the source give for `COc1ccc(-c2nc3ccccc3s2)cc1NC(=O)COc1cccc(C)c1` here?
Its survival is active: 16%.

How did the survival turn out when `O=c1c(N2CCCCC2)csc2ccc(F)cc12` was run?
Its survival is inactive: 89%.

Which survival does the source give for `CCc1nc2ccc(C(=O)NCc3cccc(Br)c3)cc2nc1CC` here?
Its survival is inactive: 101%.

Which survival does the source give for `CCc1ccc(S(=O)(=O)Nc2cc3c(cc2N2CCOCC2)n(C)c(=O)c(=O)n3C)cc1` here?
Its survival is active: 6%.

Which survival does the source give for `CCOc1ccc(NC(=O)C(=O)NCCc2ccccc2)cc1` here?
The survival was inactive: 67%.

`O=C(NC1CC(=O)N(c2ccccc2)C1)c1ccco1` (stereo not drawn) was tested. Which survival did it give?
The survival was inactive: 68%.

How did the survival turn out when `Cc1ccc(C(=O)N2CCc3cc(CNC(=O)CCc4ccccc4)ccc32)cc1` was run?
The survival was inactive: 117%.

For `COc1cccc(C(=O)NCCc2csc(-c3cccc(F)c3)n2)c1OC`, which survival is on record?
The survival was inactive: 75%.

`CCc1cccc(NC(=O)CN(c2ccc(C)cc2)S(=O)(=O)c2cccs2)c1` was tested. Which survival did it give?
The survival was inactive: 64%.

For `O=C(Nc1ccc(F)cc1)Nc1ccc2snnc2c1`, which survival is on record?
Its survival is active: 19%.

Which survival does the source give for `CCc1cccc(NC(=O)Cn2ncc3c([nH]c4ccc(C)cc43)c2=O)c1` here?
Its survival is inactive: 85%.

How did the survival turn out when `CCOc1ccccc1NC(=O)CCc1c(C)nc2c3cccnc3nn2c1C` was run?
The survival was inactive: 78%.

With `CCCCNc1sc(S(=O)(=O)CCC)nc1S(=O)(=O)c1ccc(C)cc1` as the compound, how does the survival read?
The survival was inactive: 86%.

`COc1ccc(Cl)cc1C1CC(=O)Nc2cc3c(cc21)OCCO3` (stereo not drawn) was tested. Which survival did it give?
The survival was inactive: 102%.

Which survival does the source give for `CC1=C/C(=N/OC(=O)c2ccccc2)C=CC1=O` here?
The survival was inactive: 71%.

For `Cc1ccc(CN2C(=O)c3ccccc3Sc3ccc(C(=O)NC4CCCC4)cc32)cc1`, which survival is on record?
Its survival is inactive: 95%.

Which survival does the source give for `CCNC(=O)c1c2c(nc3ccccc13)C(=O)N(C1CCCCC1)C2` here?
The survival was inactive: 106%.

For `O=C(Cn1c(SCc2ccccc2F)nc2cccnc21)Nc1ccc(F)c(Cl)c1`, which survival is on record?
Its survival is inactive: 73%.

Which survival does the source give for `CCN(CC)CCn1c(-c2ccccc2)csc1=Nc1ccccc1` here?
The survival was active: 42%.

`Nc1nonc1C(=O)NCCNCc1cccc(Cl)c1Cl` was tested. Which survival did it give?
Its survival is inactive: 65%.

How did the survival turn out when `CCCCN(CC)CCCNC(=O)C1CCCN(c2ncnc3c2nc2n3CCCCC2)C1` (stereo not drawn) was run?
The survival was inactive: 99%.

`COc1ccc(NC(=O)Cn2c(=O)n(Cc3ccccc3Cl)c(=O)c3cc(OC)c(OC)cc32)cc1OC` was tested. Which survival did it give?
The survival was inactive: 77%.

How did the survival turn out when `Cc1ccc(OCCn2c(-c3ccc(Br)cc3)nc3ccccc3c2=O)cc1C` was run?
The survival was inactive: 68%.

Which survival does the source give for `O=C1CC(c2cccc(O)c2)c2cc3c(cc2N1)OCO3` (stereo not drawn) here?
Its survival is inactive: 87%.

For `COc1ccc(-c2onc(C)c2C)cc1S(=O)(=O)N1CCN(c2ccc(Cl)cc2)CC1`, which survival is on record?
The survival was inactive: 64%.

How did the survival turn out when `O=C(CSc1nc2c([nH]c3ccccc32)c(=O)n1-c1ccccc1)N1CCOCC1` was run?
The survival was inactive: 72%.

`CC(C)OC(=O)c1c(NC(=O)COc2cccc(Br)c2)sc2c1CCCC2` was tested. Which survival did it give?
Its survival is inactive: 107%.

For `CC(CNC(=O)C1CCN(S(=O)(=O)c2ccc3c(ccn3C)c2)CC1)c1ccccc1` (stereo not drawn), which survival is on record?
Its survival is inactive: 100%.

Which survival does the source give for `O=C(CN1CCC(c2nc3ccccc3s2)CC1)N1CCCCC1` here?
The survival was inactive: 91%.

How did the survival turn out when `Cc1ccc(CCNC(=O)c2c(C)oc3nc(C)nc(N4CCOCC4)c23)cc1` was run?
The survival was inactive: 106%.

Which survival does the source give for `CCN(CCCNC(=O)c1cc(Nc2ccc(OC)cc2OC)nc2ccccc12)c1cccc(C)c1` here?
The survival was inactive: 86%.

For `Cn1cc(-c2cc3n(n2)CCC(=O)N3CC(=O)NCc2ccc(Cl)cc2)c2ccccc21`, which survival is on record?
The survival was inactive: 88%.

With `Cc1c(CC(=O)NCCc2ccccc2F)c(=O)oc2cc(O)c(Cl)cc12` as the compound, how does the survival read?
Its survival is inactive: 59%.

For `O=C(COc1ccccc1[N+](=O)[O-])N1CCC(c2nc3ccccc3o2)CC1`, which survival is on record?
The survival was inactive: 79%.

Which survival does the source give for `CC(C)S(=O)(=O)c1oc(-c2cccs2)nc1S(=O)(=O)c1ccc(F)cc1` here?
The survival was active: 9%.

Which survival does the source give for `CC(C)(C)NC(=O)CSc1nncn1NCc1ccccc1` here?
The survival was inactive: 75%.

With `O=C(O)c1ccc(S(=O)(=O)c2ccc3c(c2)C(=O)N(C2CCCCC2)C3=O)cc1` as the compound, how does the survival read?
Its survival is inactive: 97%.

`Cc1ccc(NC(=O)c2c(C)oc3ccc(O)c(CN4CCCCCC4)c23)cc1` was tested. Which survival did it give?
The survival was inactive: 95%.

`COC(=O)c1ccc(NC(=O)Cn2c(=O)nc(-c3ccccc3)c3ccccc32)cc1` was tested. Which survival did it give?
The survival was inactive: 80%.

`CCOC(=O)c1ccc(NC(=O)Cn2ncc3c(C)n(Cc4ccccc4F)c(C)c3c2=O)cc1` was tested. Which survival did it give?
The survival was inactive: 66%.

With `CC(C)c1ccc(NC(=O)Nc2csc3c2CCCC3)cc1` as the compound, how does the survival read?
Its survival is active: 13%.

With `Cc1ccc2c(=O)cc(C(=O)Nc3c(C(=O)Nc4cccc(Cl)c4)oc4ccccc34)oc2c1` as the compound, how does the survival read?
The survival was active: 36%.

With `COc1ccc(NC(=O)c2c(NCc3cccs3)sc3c2CCCC3)cc1` as the compound, how does the survival read?
The survival was inactive: 95%.

With `CCCCN(C)CC(O)Cn1cc(/C=C/C(=O)c2ccc(C)cc2)c2ccccc21` (stereo not drawn) as the compound, how does the survival read?
Its survival is active: 6%.

How did the survival turn out when `CCc1ccc2oc(-c3ccc(N)cc3)nc2c1` was run?
The survival was active: 34%.

`Cc1ccc(S(=O)(=O)C(CNC(=O)Cc2ccc(Cl)cc2)c2cccs2)cc1` (stereo not drawn) was tested. Which survival did it give?
The survival was inactive: 85%.

How did the survival turn out when `CC(C)c1c(O)nc(SCCN2CCOCC2)[nH]c1=O` was run?
Its survival is inactive: 92%.

With `Cc1cccc(Cn2c(=O)n(Cc3ccc4c(c3)OCO4)c(=O)c3oc4ccccc4c32)c1` as the compound, how does the survival read?
The survival was inactive: 77%.

Which survival does the source give for `CCc1ccccc1NC(=O)c1cc2nc(-c3ccc(OC)c(OC)c3)cc(C(F)(F)F)n2n1` here?
The survival was active: 52%.

With `CCOc1ccc(CNC(=O)c2ccc3c(c2)nnn3C2CCCC2)cc1` as the compound, how does the survival read?
Its survival is inactive: 88%.
